Measurements reported in the RNAGym collection of RNA variant scans (doi:10.1073/pnas.2313332121).
Variants at the background level are over-represented here.

B1: TPR 5TU (parent)
chain: GGAUCUUCUCGAUCUAACAAAAAAGACAAAUCUGCCACAAAGCUUGAGAGCAUCUUCGGAUGCAGAGGCGGCAGCCUUCGGUGGCGCGAUAGCGCCAACGUUCUCAACUAUGACACGCAAAACGCGUGCUCCGUUGAAUGGAGUUUAUCAUG

Variants of: B1
Experiment: polymerase ribozyme fitness, log enrichment relative to wild type (log ratio); higher = more active; in vitro selection for triplet polymerase activity
In short: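 A single round of triplicate in vitro selection, including frozen incubation at −7 °C, was applied to PCR-built, transcribed mutant libraries of each subunit of a heterodimeric triplet polymerase ribozyme. Illumina sequencing of input and output libraries retained genotypes with ≥10 input reads and ≥1 read per output. Fitness is the base-2 logarithm of genotype enrichment divided by wild-type enrichment, from inverse-variance-weighted replicate averages.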

Variant	polymerase ribozyme fitness (log ratio)
GGAUCUUCUCGAUCUCACAAAAAAGACAAAUCUGCCACAAAGCUUGAGAGCAUCUUCGGUUGCAGAGGUGGCAGCCUUCGGUGGCGCGAUAGCGCCAAGGUUCUCAACUAUGACACGCAAAACGCCAGCUCCGUUGAAUGGAGUUUAUCAUG [A16C A60U C69U C99G G126C U127A]	≤ -4.2
GGAUCUUCUCGAUCUCACAAAAAAGACAAAUCUGCCACAAAGCUUGAGAGCAUCUUCGGAUGCAGAGGCGGCAGCCUUCGGUGGCGCGAUAGCGUCAACGUUCUCAACUAUGACACGCAAAACGCGUGCUCCGUUGAAUGGAGUUUAUCAUG [A16C C95U]	-0.661
GGAUCUUCUCGAUCUCACAAAAAAGACAAAUCUGCCACAAAGCUUGAGAGCAUCUUCGGAUGCAGAGGCGGCAGCCUUCGGUGGCGCGAUAGCGCCAAGGUUCUCAACUAUGACACGCAAAACGAGUGCUCCGUUGAAUGGAGUUUAUCAUG [A16C C99G C125A]	-2.16
GGAUCUUCUCGAUCUCACAAAAAAGACAAAUCUGACACAAAGCUUGAGAGCAUCUUCGGAUGCAGAGGCGGCAGCCUUCGGUGGCGAGAUAGCGCCAACGUUCUCAACUAUGACACGCAAAACGCGUGCUCCGUUGAAUGGAGUUUAUCCUG [A16C C35A C87A A150C]	≤ -4.2
GGAUCUUCUCGAUCUCACAAAAAAGACAAAUCUGCCACAAAGCUUGAGAGCAUCUUCGGAUGCAGAGGCGGCAGCCUUCGGUGGGGCGAUAGCGCCAACGUUCUCAACUAUGACACGCAAAACGCGUGCUCCGUUGAAUGGAGUUUAUCAUG [A16C C85G]	-4.13
GGAUCUUCUCGAUCUCACAAAAAAGACAAAUCUGCCACAAAGCUUGAGAGCAUCUUCGGAUGCAGAGGCGGCAGCCUUCGGUGGUGCGAUAGCGCCAACGUUCUCAACUAUGACACGCAAAACGCGUGCUCCGUUGAAUGGAGUUUAUCAUG [A16C C85U]	-1.75
GGAUCUUCUCGAUCUCACAAAAAAGACAAAUCUGCCACAAAGCUUGAGAGCAUCUUCGGAUGCAGAGGCGGCAGCCUUCGGUGGCGUGAUCGCGCCAACGUUCUCAACUAUGACACGCAAAACGCGUGCUCCGUUGAAUGGAGUUUAUCAUG [A16C C87U A91C]	≤ -4.2
GGAUCUUCUCGAUCUCACAAAAAAGACAAAUCUGGCACAAAGCUUGAGAGCAUCUUCGGAUGCAGAGUCGGCAGCCUUCGGUGGCGCGAUAGCGCCAACGUUCUCAACGAUGACACGCAAAACGCGUGCUCCGUUGAAUGGAGUUUAUCAUG [A16C C35G G68U U109G]	≤ -4.2
GGAUCUUCUCGAUCUCACAAAAAAGAGAAAUCUGCCACAAAGCUUGAGAGCAAAUUCGGAUGCAGAGGCGGCAACCUUCGGUGGCGCGAUAGCACCAACGUUCUCAACUAUGACACGCAAAACGCGUGCUCCGUUGAAUGGAGUUUAUCAUG [A16C C27G U53A C54A G74A G94A]	≤ -4.2
GGAUCUUCUCGAUCUCACAAAAAAGACAAAUCUGCCACAAAGCUUGAGAGCAUCUUCGGAUGCAGAGGCGGUAGCCUUCGGAGGUGCGAUUGCGCCAACGUUCUCAACUAUGACACGCAAAACGCGUGCUCCGUUGAAUGGAGUUUAUCAUG [A16C C72U U82A C85U A91U]	≤ -4.2
GGAUCUUCUCGAUCUCACAAAAAAGACAAAUCUGGCACAAAGCUUGAGAGCAUCUUCGGAUGCAGAGGCGGCAGCCUUCGGUCGCGCGAUAGCGCUAACGCUCUCAACUAUGACACGCAAAACGCGCGCUCCGUUGAAUGGAGUUUAUCAUG [A16C C35G G83C C96U U101C U127C]	≤ -4.2
GGAUCUUCUCGAUCUCACAAAAAAGACAAAUCUGCCACAAAGCUUGAGAGCAUCUUCGGAUGGAGAGGCAGCAGCCUUCGGUGGAGCGAUAGCGCCAACGUUCUCAACUAUGACACGCAAAACGCGUGCUCCGUUGAAUGGAGUUUAUCAUG [A16C C63G G70A C85A]	≤ -4.2
GGAUCUUCUCGAUCUCACAAAAAAGACAAAUCUGCCACAAAGCUUGAGAGCAUCUUUGGCUGCAGAGGCGGCAGCCUUCGGUGGCGCGAUAGUGCCAACGUUCUCAACUAUGACACGUAAAACGCGUGCUCCGUUGAAUUGACUUUAUCAUG [A16C C57U A60C C93U C118U G140U G143C]	≤ -4.2
GGAUCUUCUCGAUCUCACAAAAAAGACAAAUCUGCCACAAAGCUUGAGCGCAUCUUCGGAUGCAGAGGCGGCAGCCUUCGGUGGCGCGAUAGCGCCAACGUUCUCAACUAUGACACGCAAAACGCGUGCUCCGUUGAAUGGAGUUUAUCAUG [A16C A49C]	≤ -4.2
GGAUCUUCUCGAUCUCACAAAAAAGACAAAUCUGCCACAAAGCUUGAGAGCAUAUUCGGAUGCAGAGGCGGCAGCCUUCGGUGGCGCGAUUUCGCCAACGUUCUCAACUAUGAUACGCAAAACGCGUGCUCCGAUGAAUGGAGAUUAUCAUG [A16C C54A A91U G92U C114U U134A U144A]	≤ -4.2
GGAUCUUCUCGAUCUCACAAAAAAGACAAAUUUGCCACAAAACUUGAGAGCAUCUUCGUAUGCAGAGGCGGCAGCCUUCGGUGGCGCGAUAACGCCAACGUUCUCAACUAUGACACGCAAAAGGCGUGCUCCGUUGAAUGGAGUUUAUCAUG [A16C C32U G42A G59U G92A C123G]	≤ -4.2
GGAUCUUCUCGAUCUCACAAAAAAGACAAAUCUGCCACAAAGCUUGAGUGCAUCUUCGAAUGCAGAGGCGGCAGCAUUCGGUGGCGCGAUAGCGCCAACGUUCUCAACUAUGACACGCAAAACGCGUGCUCCGUUAAAUGGAGUUUAUCAUG [A16C A49U G59A C76A G136A]	≤ -4.2
GGAUCUUCUCGAUCUCACAAAAAAGACAAAUCUGCCGCAAAGCUUGAGAGCAUCUUCGGAUGCAGAGGCGGCAGCCUUCGGUGGCGCGAUAGGGCCAACGUUCUCAACUAUGACACGCAAAACGCGUGCUCCGUUGAAUGGAGUUUAUCAUG [A16C A37G C93G]	≤ -4.2
GGAUCUUCUCGAUCUCACAAAAAAGACAAAUGUGCCACAAAGCUUGAGAGCAUCUGCGGAUGGAGAGGCGGCAGCCUUCGGUGGCGCGAUAGCGCCAACGUUCUCAACUAUGACACGCAAAACGCGUGCUCCGUUGAAUGGAGUUUAUCAUG [A16C C32G U56G C63G]	≤ -4.2
